Data reported in PubChem BioAssay AID493208 (National Center for Advancing Translational Sciences (NCATS), 2011).
The whole screen tested about 44,000 compounds, of which about 340 (0.77%) were called active. Inconclusive results (about 5%) are left out. Calls follow the shape of the dose curve; as a rule, active = well fitted inhibition curve with a large enough effect; inconclusive = small, poorly fitted or top-dose-only effect; inactive = flat fitted curve, though single readings scatter. The list shows a part of the results.

experiment: Acumen qHTS Assay for Inhibitors of the mTORC1 Signaling Pathway in MEF (Tsc2-/-, p53-/-) Cells: Sytravon; details: phospho-rpS6 immunofluorescence/PI, 24 h; series mostly up to 38.3 µM; activity change, negative = inhibition: at the top concentration;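 also: plate controls were DMSO for no effect and rapamycin for full effect; nearly all actives have a fitted effect of over 50% in size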
Summary of the method: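 Cell-based qHTS: Tsc2-/- p53-/- MEF, 24 h cpd, 37 °C; fix/perm, anti-phospho-S6 Alexa-488 + PI; Acumen 488 nm scan; pS6/PI ratio, % positive cells; rapamycin 7.5 nM = inhibition ref; PI count = viability.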

Activity change, negative = inhibition, inactive:
COc1ccc2c(c1)c1c(c(=O)n(-c3ccc(F)c(Cl)c3)c(=O)n1CC(=O)N1CCCC1)n2C -7.57%
Cc1c2cnn(-c3ccccc3)c(=O)c2c(C)n1CC(=O)NCCc1ccc(Cl)cc1 0.21%
CCOc1ccc(NC(=O)c2cc(S(=O)(=O)N3CCCCCC3)cn2C)cc1 1.37%
COc1cc(CNC(=O)c2ccc3c(c2)N(C)C(=O)C2CCCCN32)cc(OC)c1OC (stereo unspecified) -1.02%
CC(=O)N1CCc2c(sc3c2c(=O)n(-c2ccccc2)c(=O)n3CC(=O)Nc2ccccc2)C1 1.37%
O=C(O)c1ccc(CNCc2ccc(Cl)cc2)s1 -2.5%
CC(C)CN(C(=O)c1cccc(S(=O)(=O)N2CCCCC2)c1)C1CCS(=O)(=O)C1 (stereo unspecified) -9.74%
Cc1ccc2nc(Nc3cccc(Cl)c3C)c(-n3nc(C)cc3C)nc2c1 4.48%
Cc1c(-c2nc(-c3ccc4c(c3)OCO4)no2)nnn1-c1ccc(Br)cc1F 4.04%
Cc1ccccc1NC(=O)Cn1c(SCC(=O)Nc2ccc(F)cc2)nc2ccccc21 0%
CCOC(=O)c1ccc(NC(=O)Cn2c(=O)n(-c3ccc(C)cc3)c(=O)c3c2cnn3C)cc1 2.49%
O=C(COc1ccccc1Cl)OCc1cc(=O)n2nc(-c3cccs3)sc2n1 -0.899%
Cc1ccc(CNC(=O)Cc2c(C)c3cc4c(C)coc4cc3oc2=O)cc1 -17.4%
CCOC(=O)c1c(NC(=O)c2nc(SCC)ncc2Cl)sc(C(C)=O)c1C -3.71%
CCOC(=O)c1ccc(N2CCN(c3cccc(OC)c3)CC2)c(NC(=O)Nc2ccc(OCC)cc2)c1 -2.94%
CCC(Cn1nnc2ccccc2c1=O)NC(=O)Nc1cccc(C)c1C (stereo unspecified) -1.18%
COc1ccc(C(=O)OCc2cc(=O)n3nc(-c4cccs4)sc3n2)cc1 -1.11%
CCC(=O)N1CCc2cc(Br)cc(S(=O)(=O)CCC(=O)N3CCN(c4cccc(C(F)(F)F)c4)CC3)c21 2.46%
Cc1ccc(NC(=O)C2CCCN(c3nnc(C)c4c(C)n(-c5ccccc5)nc34)C2)c(Cl)c1 (stereo unspecified) -0.0537%
O=[N+]([O-])c1cc(-c2nc(-c3ccccc3)no2)ccc1N1CCCCC1 0.435%
CC1=C(C(=O)Nc2ccccc2)C(c2ccncc2)n2nc(SCc3ccccc3Cl)nc2N1 (stereo unspecified) -1.64%
O=C(Cn1c(=O)n(Cc2ccco2)c(=O)c2ccccc21)Nc1ccc(Cl)cc1Cl -1.83%
O=C(c1ccc(Cl)cc1)N1CCC(c2ccncc2)CC1 -2.15%
CCN(CC)S(=O)(=O)c1ccc2nc(NC(=O)c3cccnc3)sc2c1 1.02%
COc1cc(-c2noc(-c3ccc(N4CCN(C)CC4)c([N+](=O)[O-])c3)n2)cc(OC)c1OC 0.858%
O=C(Cn1c(=O)ccc2cc(S(=O)(=O)N3CCCC3)ccc21)NCc1ccc(Cl)cc1 -0.48%
CCOC(=O)c1cc(S(=O)(=O)NCc2ccccc2)[nH]n1 -1.37%
CCC(CO)NC(=O)C(=O)Nc1c2c(nn1-c1ccc(F)cc1)CSC2 (stereo unspecified) -12.8%
COc1ccccc1CNS(=O)(=O)c1c(C)nc2scc(C)n2c1=O 0.389%
Cc1cc(Nc2ccc(C)c(Cl)c2)n2nc(Cc3ccccc3)nc2n1 1.85%
CCOc1ccc(NC(=O)c2c(Nc3ccc(OC)cc3OC)sc(C(=O)c3ccc(Cl)cc3)c2N)cc1 -2.59%
COCCn1c(=O)[nH]c2cc(C(=O)NCc3ccccc3Cl)ccc2c1=O -3.66%
CCOc1ccc(NC(=O)CSc2nc(-c3ccc(OC)cc3)nc3c2Cc2c(CO)cnc(C)c2O3)cc1 0.246%
CCOc1ccc(CCNC(=O)CCc2cn(Cc3ccccc3F)c3ccccc23)cc1OCC -13.5%
Cc1cccc(CNC(=O)c2cnc3c(-c4cccc(C)c4)c(C)nn3c2C)c1 -0.504%
CCCCC(=O)N1c2ccccc2C(C)(c2ccccc2)CC1(C)C (stereo unspecified) -0.189%
COc1ccc(OC)c(CCNc2ncnc3onc(-c4ccc(Cl)cc4)c23)c1 -19.4%
Cn1c(=O)c2cc(S(=O)(=O)NC(Cc3ccccc3)C(=O)Nc3ccc(F)cc3)ccc2n(C)c1=O (stereo unspecified) -2.03%
CC(=O)N1CCCc2cc(S(=O)(=O)N(C)CC(=O)Nc3cccc(Cl)c3C)ccc21 -0.231%
CCc1ccc(S(=O)(=O)NCCc2cn3ccsc3n2)cc1 -17.3%
O=C(c1ccccc1Cl)n1nc(-c2ccco2)nc1NCc1cccs1 1.05%
CCN(CC)c1ccc(NC(=O)COCc2cc(-c3ccc4c(c3)OCO4)on2)c(C)c1 -0.165%
Cc1ccccc1Cn1c2ccccc2c2cnn(CC(=O)NCc3cccc(Cl)c3)c(=O)c21 -3.08%
CCOC(=O)c1ccc(CN(Cc2ccc(F)cc2)S(=O)(=O)c2ccc(F)c(C(=O)Nc3cc(Cl)ccc3OC)c2)cc1 7.28%
Cc1ccc(N2CCN(C(=O)c3c(C)oc4ncn(C)c(=O)c34)CC2)c(C)c1 0.387%
Cc1ccc(NC(=O)CSc2nc3c(oc4ccccc43)c(=O)n2Cc2ccco2)cc1F 4.9%
